Assay results published in PubChem BioAssay (NCI).
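These data come from cells grown in 96-well plates and exposed to compound for 48 hours at five concentrations. At the GI50, growth is halved. TGI: total growth inhibition.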

Tested on: NCI-H322M lung
Assay: NCI-60 cell line screen, 48 h

SMILES	GI50 [µM]	TGI [µM]
CC(C)(C)c1ccc(CC(=O)Nc2sc3c(c2C(N)=O)CCC(=O)C3)cc1	4.26	22.5
c1ccc2c(NCCCN3CCOCC3)c3oc4ccccc4c3nc2c1	0.964	6.26
